Data on nine molecules can be found in paper PMC9911399, “Two distinct binding modes provide the RNA-binding protein RbFox with extraordinary sequence specificity”.

Changes are numbered by the printed parent chain; changes in the protein carry UniProt numbers. This is one part of the list.

B1: GGCGAUA (DNA:RNA)
RNA: GGGAGACCGGAAUUCAGAUUGUCCGGCGAUAUUAAAUCCCGUCGUAGCCACCA
DNA 1: CAATCTGAATTCCGGTCTCCC
DNA 2: TGGTGGCTACGACGGGATT
B2: AAGUAUC (DNA:RNA)
RNA: B1 RNA with G25A, G26A, C27G, G28U, A31C
DNA 1: CAATCTGAATTCCGGTCTCCC
DNA 2: TGGTGGCTACGACGGGATT
B3: AACAGGC (DNA:RNA)
RNA: B1 RNA with G25A, G26A, G28A, A29G, U30G, A31C
DNA 1: CAATCTGAATTCCGGTCTCCC
DNA 2: TGGTGGCTACGACGGGATT
B4: GGAGCGU (DNA:RNA)
RNA: B1 RNA with C27A, A29C, U30G, A31U
DNA 1: CAATCTGAATTCCGGTCTCCC
DNA 2: TGGTGGCTACGACGGGATT
B5: CACAAAU (DNA:RNA)
RNA: B1 RNA with G25C, G26A, G28A, U30A, A31U
DNA 1: CAATCTGAATTCCGGTCTCCC
DNA 2: TGGTGGCTACGACGGGATT
B6: AGAGGUG (DNA:RNA)
RNA: B1 RNA with G25A, C27A, A29G, A31G
DNA 1: CAATCTGAATTCCGGTCTCCC
DNA 2: TGGTGGCTACGACGGGATT
B7: CUUGGGU (DNA:RNA)
RNA: B1 RNA with G25C, G26U, C27U, A29G, U30G, A31U
DNA 1: CAATCTGAATTCCGGTCTCCC
DNA 2: TGGTGGCTACGACGGGATT
B8: CAGAACU (DNA:RNA)
RNA: B1 RNA with G25C, G26A, C27G, G28A, U30C, A31U
DNA 1: CAATCTGAATTCCGGTCTCCC
DNA 2: TGGTGGCTACGACGGGATT
B9: UCAUUGG (DNA:RNA)
RNA: GGGAGACCGGAAUUCAGAUUGUCCUCAUUGGUUAAAUCCCGUCGUAGCCACCA
DNA 1: CAATCTGAATTCCGGTCTCCC
DNA 2: TGGTGGCTACGACGGGATT

This test addresses T1, RBFOX1 RRM RbFoxmut (Fox-RRM*) (Homo sapiens, UniProt Q9NWB1 109-208, R118D;E147R;N151S;E152T).
T1 sequence: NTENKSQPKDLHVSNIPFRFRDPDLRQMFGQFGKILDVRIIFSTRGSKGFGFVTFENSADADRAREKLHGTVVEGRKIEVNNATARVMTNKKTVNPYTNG
Put plainly: EMSA; HiTS-Eq, 1 nM pool, 10 min; buffer printed only for the single-RNA assays: 10 mM Tris pH 7.5, 150 mM NaCl, 3.4 mM EDTA, 0.001% NP-40, 30 C. The following applies: tags: His6 N-terminal (pET28a); label: 5' 32P. The method in brief:
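Purified wild-type or mutant RbFox RRM at increasing concentrations was equilibrated with 1 nM of 5′-radiolabelled RNA carrying 7 randomized nucleotides for 10 min in 50 µL. Unbound RNA was separated by 8% native PAGE and sequenced. Relative association constants came from read-count changes of each RNA species compared with the control reaction, normalised to the cognate motif.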
On the technique in general: In EMSA bound probe runs differently from free probe, usually more slowly.
Turning to B1, the binding signal was 0.0912 KA relative to UGCAUGU.
With B2 the figure was 0.151 KA relative to UGCAUGU.
Turning to B3, the binding signal was 0.0663 KA relative to UGCAUGU.
As to B4, the binding signal is 0.124 KA relative to UGCAUGU.
In the case of B5, the binding signal is 0.063 KA relative to UGCAUGU.
With B6 the figure was 0.134 KA relative to UGCAUGU; with B7, 0.115 KA relative to UGCAUGU.
Then B8, with 0.111 KA relative to UGCAUGU; and B9, with 0.106 KA relative to UGCAUGU.
